# Reference: the antibiotic and cytotoxicity screens of Wong et al. (2023)
# Some of the results follow.
# Tests used:
# HSkMC = human skeletal muscle cells; assay: cytotoxicity call (relative viability < 0.9); conditions: 10 µM
# HepG2 = assay: cytotoxicity call (relative viability < 0.9); conditions: 10 µM
# S. aureus RN4220 = assay: growth inhibition call (relative growth <= 0.2); conditions: 50 µM
Structure (SMILES),cytotoxicity call (HSkMC),cytotoxicity call (HepG2),growth inhibition call (S. aureus RN4220)
C[C@@H]1CN([C@H](C)CO)C(=O)c2cc(NS(C)(=O)=O)ccc2O[C@@H](C)CCCCO[C@@H]1CN(C)S(=O)(=O)c1ccccc1,inactive,inactive,inactive
Brc1cccc2ocnc12,inactive,inactive,inactive
C[C@H](CO)N1C[C@H](C)[C@H](CN(C)S(=O)(=O)c2ccccc2)Oc2ccc(NC(=O)Nc3cccc4ccccc34)cc2C1=O,inactive,inactive,inactive
COCC(=O)Nc1ccc2c(c1)OC[C@H](C)N(C(=O)Cc1cccnc1)C[C@H](C)[C@@H](OC)CN(C)C2=O,inactive,inactive,inactive
Cc1cc(C)cc(C(=O)N(C)[C@H](Cc2ccc(-c3ccccc3)cc2)C(=O)N[C@@H](Cc2c[nH]c3ccccc23)C(=O)O)c1,inactive,inactive,active
C[C@@H]1CN([C@H](C)CO)C(=O)Cc2cc(NC(=O)CCC(F)(F)F)ccc2O[C@H]1CN(C)S(C)(=O)=O,inactive,inactive,inactive
CC(C)c1ccc(/C=C2\CSc3ccccc3C2=O)cc1,inactive,inactive,inactive
NC[C@H](c1ccco1)N1CCN(c2ccc(F)cc2)CC1,inactive,inactive,inactive
C[C@@H]1CCCCO[C@@H](CN(C)Cc2ccc3c(c2)OCO3)[C@H](C)CN([C@H](C)CO)C(=O)c2cc(NC(=O)c3ccccc3)ccc2O1,inactive,inactive,inactive
Cc1ccc(S(=O)(=O)Nc2ccc3c(c2)C(=O)N([C@H](C)CO)C[C@H](C)[C@H](CN(C)S(=O)(=O)c2ccc(Cl)cc2)OCCCC[C@@H](C)O3)cc1,inactive,inactive,inactive
C[C@@H](O)[C@H]1C(=O)N2C(C(=O)O)=C(SCCNC=N)C[C@H]12,inactive,inactive,inactive
COc1ccc(S(=O)(=O)N(C)C[C@H]2Oc3c(NC(=O)Cn4cnnn4)cccc3C(=O)N([C@H](C)CO)C[C@@H]2C)cc1,inactive,inactive,inactive
C[C@@H]1CN([C@H](C)CO)C(=O)Cc2cc(NC(=O)CCN3CCOCC3)ccc2O[C@@H]1CN(C)C(=O)Nc1ccc(F)cc1,inactive,inactive,inactive
O=C(CCCCCC(=O)N/N=C/[C@H](O)[C@@H](O)[C@H](O)CO)NO,inactive,inactive,inactive
C[C@@H]1CN([C@@H](C)CO)C(=O)c2cc(NS(=O)(=O)c3ccc(Cl)cc3)ccc2O[C@@H](C)CCCCO[C@@H]1CN(C)Cc1ccc(C(F)(F)F)cc1,inactive,inactive,inactive
CCC(=O)N(C)C[C@@H]1Oc2ncc(C#C[C@@H](C)O)cc2C(=O)N([C@@H](C)CO)C[C@@H]1C,inactive,inactive,inactive
O=C(c1cccnc1)N1C[C@H]2[C@@H](c3ccccc31)[C@H](CO)N2C(=O)CN1CCOCC1,inactive,inactive,inactive
C[C@H]1CN([C@@H](C)CO)C(=O)c2cc(NC(=O)C3CC3)ccc2O[C@H]1CN(C)C(=O)Nc1ccc2c(c1)OCO2,inactive,inactive,inactive
Cc1ccc(C(=O)c2ccc(Oc3ccccc3)cc2)cc1,inactive,inactive,inactive
CN(C)CCCC[C@@H]1NC(=O)[C@H]2C[C@@H](C(=O)NCCCCCCNC(=O)CS)[C@@H](c3ccc(O)cc3)N2C1=O,inactive,inactive,inactive
Cc1noc(C)c1S(=O)(=O)Nc1cccc2c1O[C@@H](CN(C)S(=O)(=O)c1cccs1)[C@@H](C)CN([C@@H](C)CO)C2=O,inactive,inactive,inactive
C[C@H](CO)N1C[C@H](C)[C@H](CN(C)CC2CCCCC2)Oc2ccc(NS(=O)(=O)c3cn(C)cn3)cc2C1=O,inactive,inactive,inactive
C[C@H]1CN([C@@H](C)CO)C(=O)Cc2cc(NC(=O)c3ccncc3)ccc2O[C@@H]1CN(C)Cc1ccc(Oc2ccccc2)cc1,inactive,inactive,inactive
C[C@@H]1CC[C@@]2(OC1)O[C@H]1C[C@H]3[C@H]4CC=C5C[C@@H](O[C@@H]6O[C@H](CO)[C@@H](O[C@@H]7O[C@@H](C)[C@H](O)[C@@H](O)[C@H]7O[C@@H]7O[C@@H](C)[C@H](O)[C@@H](O)[C@H]7O)[C@H](O)[C@H]6O)CC[C@]5(C)[C@@H]4CC[C@]3(C)[C@H]1[C@@H]2C,active,active,inactive
C[C@H]1CN([C@@H](C)CO)C(=O)Cc2cc(NS(=O)(=O)c3ccccc3)ccc2O[C@H]1CN(C)S(=O)(=O)c1ccccc1,inactive,inactive,inactive
